# Assay results: the supplement of paper PMC8728848
# The list shows a part of the results.
# Tests used:
# Test in all cases: glycan array binding signal (z-score within array); higher = stronger binding
# Conditions in all cases: glycan notation: IUPAC condensed, linker removed
# [1] = target: Neu5Ac(a2-3)[GalNAc(b1-4)]Gal(b1-4)Glc
# In short: (§1)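 From the Consortium for Functional Glycomics database, 3228 arrays were curated, keeping only those whose protein sequence was available. Binding is given as a within-array Z-score averaged across arrays sharing a protein sequence and across linkers. Negative Z-scores can be read as non-binding.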
# [2] = target: Neu5Ac(a2-3)[GalNAc(b1-4)]Gal(b1-4)GlcNAc
# In short: as §1
# [3] = target: Neu5Ac(a2-3)[GalNAc(b1-4)]Gal(b1-4)GlcNAc(b1-3)GalNAc
# In short: as §1
# [4] = target: Neu5Ac(a2-3)[Neu5Ac(a2-6)]GalNAc
# In short: as §1
# [5] = target: Neu5Ac(a2-6)Gal
# In short: as §1
# [6] = target: Neu5Ac(a2-6)Gal(b1-3)GlcNAc(b1-3)[Gal(b1-4)GlcNAc(b1-6)]Gal(b1-4)Glc
# In short: as §1
# [7] = target: Neu5Ac(a2-6)Gal(b1-4)Glc
# In short: as §1
# [8] = target: Neu5Ac(a2-6)Gal(b1-4)GlcNAc
# In short: as §1
# [9] = target: Neu5Ac(a2-6)Gal(b1-4)GlcNAc(b1-2)Man(a1-3)Man(b1-4)GlcNAc(b1-4)GlcNAc
# In short: as §1
# [10] = target: Neu5Ac(a2-6)Gal(b1-4)GlcNAc(b1-2)Man(a1-3)[Gal(b1-4)GlcNAc(b1-2)Man(a1-6)]Man(b1-4)GlcNAc(b1-4)GlcNAc
# In short: as §1
# [11] = target: Neu5Ac(a2-6)Gal(b1-4)GlcNAc(b1-2)Man(a1-3)[GlcNAc(b1-2)Man(a1-6)]Man(b1-4)GlcNAc(b1-4)GlcNAc
# In short: as §1
# [12] = target: Neu5Ac(a2-6)Gal(b1-4)GlcNAc(b1-2)Man(a1-3)[GlcNAc(b1-2)Man(b1-4)GlcNAc(b1-2)Man(a1-6)]Man(b1-4)GlcNAc(b1-4)GlcNAc
# In short: as §1
# [13] = target: Neu5Ac(a2-6)Gal(b1-4)GlcNAc(b1-2)Man(a1-3)[Man(a1-6)]Man(b1-4)GlcNAc(b1-4)GlcNAc
# In short: as §1
# [14] = target: Neu5Ac(a2-6)Gal(b1-4)GlcNAc(b1-2)Man(a1-3)[Neu5Ac(a2-6)Gal(b1-4)GlcNAc(b1-2)Man(a1-6)]Man(b1-4)GlcNAc(b1-4)GlcNAc
# In short: as §1
# [15] = target: Neu5Ac(a2-6)Gal(b1-4)GlcNAc(b1-2)Man(a1-3)[Neu5Ac(a2-6)Gal(b1-4)GlcNAc(b1-2)Man(a1-6)]Man(b1-4)GlcNAc(b1-4)[Fuc(a1-6)]GlcNAc
# In short: as §1
# [16] = target: Neu5Ac(a2-6)Gal(b1-4)GlcNAc(b1-2)Man(a1-6)Man(b1-4)GlcNAc(b1-4)GlcNAc
# In short: as §1
# [17] = target: Neu5Ac(a2-6)Gal(b1-4)GlcNAc(b1-2)Man(a1-6)[Gal(b1-4)GlcNAc(b1-2)Man(a1-3)]Man(b1-4)GlcNAc(b1-4)GlcNAc
# In short: as §1
# [18] = target: Neu5Ac(a2-6)Gal(b1-4)GlcNAc(b1-2)Man(a1-6)[GlcNAc(b1-2)Man(a1-3)]Man(b1-4)GlcNAc(b1-4)GlcNAc
# In short: as §1
# [19] = target: Neu5Ac(a2-6)Gal(b1-4)GlcNAc(b1-2)Man(a1-6)[Man(a1-3)]Man(b1-4)GlcNAc(b1-4)GlcNAc
# In short: as §1
# [20] = target: Neu5Ac(a2-6)Gal(b1-4)GlcNAc(b1-3)Gal(b1-3)GlcNAc
# In short: as §1
# [21] = target: Neu5Ac(a2-6)Gal(b1-4)GlcNAc(b1-3)Gal(b1-4)GlcNAc
# In short: as §1
# [22] = target: Neu5Ac(a2-6)Gal(b1-4)GlcNAc(b1-3)Gal(b1-4)GlcNAc(b1-3)Gal(b1-4)GlcNAc
# In short: as §1
# [23] = target: Neu5Ac(a2-6)Gal(b1-4)GlcNAc(b1-3)Gal(b1-4)[Fuc(a1-3)]GlcNAc(b1-3)Gal(b1-4)[Fuc(a1-3)]GlcNAc
# In short: as §1
# [24] = target: Neu5Ac(a2-6)Gal(b1-4)GlcNAc(b1-3)GalNAc
# In short: as §1
# [25] = target: Neu5Ac(a2-6)Gal(b1-4)GlcNAc(b1-3)[Neu5Ac(a2-6)Gal(b1-4)GlcNAc(b1-6)]GalNAc
# In short: as §1
# [26] = target: Neu5Ac(a2-6)Gal(b1-4)GlcNAc(b1-6)GalNAc
# In short: as §1
# [27] = target: Neu5Ac(a2-6)Gal(b1-4)GlcNAc(b1-6)[Gal(b1-3)GlcNAc(b1-3)]Gal(b1-4)Glc
# In short: as §1
# [28] = target: Neu5Ac(a2-6)Gal(b1-4)GlcNAc6S
# In short: as §1
# [29] = target: Neu5Ac(a2-6)GalNAc
# In short: as §1
# [30] = target: Neu5Ac(a2-6)GalNAc(b1-4)GlcNAc
# In short: as §1
binder,measurement,setting,value
"PRKCE (Homo sapiens), Q02156 (protein) MVVFNGLLKIKICEAVSLKPTAWSLRHAVGPRPQTFLLDPYIALNVDDSRIGQTATKQKTNSPAWHDEFVTDVCNGRKIELAVFHDAPIGYDDFVANCTIQFEELLQNGSRHFEDWIDLEPEGRVYVIIDLSGSSGEAPKDNEERVFRERMRPRKRQGAVRRRVHQVNGHKFMATYLRQPTYCSHCRDFIWGVIGKQGYQCQVCTCVVHKRCHELIITKCAGLKKQETPDQVGSQRFSVNMPHKFGIHNYKVPTFCDHCGSLLWGLLRQGLQCKVCKMNVHRRCETNVAPNCGVDARGIAKVLADLGVTPDKITNSGQRRKKLIAGAESPQPASGSSPSEEDRSKSAPTSPCDQEIKELENNIRKALSFDNRGEEHRAASSPDGQLMSPGENGEVRQGQAKRLGLDEFNFIKVLGKGSFGKVMLAELKGKDEVYAVKVLKKDVILQDDDVDCTMTEKRILALARKHPYLTQLYCCFQTKDRLFFVMEYVNGGDLMFQIQRSRKFDEPRSRFYAAEVTSALMFLHQHGVIYRDLKLDNILLDAEGHCKLADFGMCKEGILNGVTTTTFCGTPDYIAPEILQELEYGPSVDWWALGVLMYEMMAGQPPFEADNEDDLFESILHDDVLYPVWLSKEAVSILKAFMTKNPHKRLGCVASQNGEDAIKQHPFFKEIDWVLLEQKKIKPPFKPRIKTKRDVNNFDQDFTREEPVLTLVDEAIVKQINQEEFKGFSYFGEDLMP",glycan array binding signal (z-score),[1],-0.201
same,glycan array binding signal (z-score),[2],-0.347
same,glycan array binding signal (z-score),[3],0.849
same,glycan array binding signal (z-score),[4],-0.368
same,glycan array binding signal (z-score),[5],-0.279
same,glycan array binding signal (z-score),[6],0.051
same,glycan array binding signal (z-score),[7],-0.13
same,glycan array binding signal (z-score),[8],-0.297
same,glycan array binding signal (z-score),[9],-0.232
same,glycan array binding signal (z-score),[10],0.571
same,glycan array binding signal (z-score),[11],3.58
same,glycan array binding signal (z-score),[12],-0.105
same,glycan array binding signal (z-score),[13],0.351
same,glycan array binding signal (z-score),[14],0.106
same,glycan array binding signal (z-score),[15],-0.322
same,glycan array binding signal (z-score),[16],0.686
same,glycan array binding signal (z-score),[17],0.796
same,glycan array binding signal (z-score),[18],-0.266
same,glycan array binding signal (z-score),[19],0.782
same,glycan array binding signal (z-score),[20],-0.271
same,glycan array binding signal (z-score),[21],-0.39
same,glycan array binding signal (z-score),[22],0.225
same,glycan array binding signal (z-score),[23],-0.186
same,glycan array binding signal (z-score),[24],-0.3
same,glycan array binding signal (z-score),[25],-0.286
same,glycan array binding signal (z-score),[26],-0.321
same,glycan array binding signal (z-score),[27],-0.441
same,glycan array binding signal (z-score),[28],-0.31
same,glycan array binding signal (z-score),[29],-0.427
same,glycan array binding signal (z-score),[30],-0.353
